# Laboratory results from PubChem BioAssay AID624171 (National Center for Advancing Translational Sciences (NCATS), 2012).
# The campaign covered roughly 410,000 compounds. About 1,200 (0.29%) were called active. Inconclusive means that the source gave no clear call. Such entries were picked first, then a sample of the others. Calls follow the shape of the dose curve; as a rule, active = well fitted activation curve with a large enough effect; inconclusive = small, poorly fitted or top-dose-only effect; inactive = flat fitted curve, though single readings scatter. A potency beside an inconclusive call is a rough fit, not a confirmed value.
# Experiment: qHTS of Nrf2 Activators; also: nearly all actives have a fitted effect of over 65% in size; as to activation: % of control where 0% means no effect
# Conditions: AREc32 ARE-luciferase reporter (MCF7-derived line), luminescence, 24 h; activation: at 46.1 µM (top of the series)
# In short: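 ARE-driven firefly luciferase activity in AREc32 cells measured after a 24 hr compound exposure at 37 deg C, using Steady-Glo reagent and a 30 min room-temperature hold.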
# Potency is read from the fitted curve at half-maximal effect; tags tell the direction and shape of the fitted curve.
SMILES,Potency,activation
Cc1ccccc1Oc1cc(-n2ncc(Cl)c(Cl)c2=O)ncn1,"inconclusive: 0.562 µM [activator, full curve, poor fit]",–
CS/C(=C\C(=O)c1ccco1)Nc1ccccc1Cl,"inconclusive: 2.82 µM [activator, full curve, poor fit]",–
CCOC(=O)C1CCCN(C(=O)c2ccc3c(c2)N(Cc2ccc(Cl)cc2)C(=O)c2ccccc2S3=O)C1 (stereo unspecified),–,inactive: 4.43%
CC(C)Sc1ncnc2c1cnn2-c1ccccc1,"inconclusive: 17.8 µM [activator, single point]",–
O=C(CCl)Nc1c2c(nn1-c1ccccc1)CSC2,"inconclusive: 15.8 µM [activator, partial curve, poor fit]",–
CC(C)NC(=O)C1(C)CCN1CCC(=O)c1ccccc1 (stereo unspecified),"inconclusive: 25.1 µM [activator, single point]",–
CCc1cc(C(=O)c2ccc(C)cc2)c(NC(=O)CCl)s1,"inconclusive: 22.4 µM [activator, single point]",–
O=C(NCc1nc2ccccc2[nH]1)c1cccc(Cl)c1,"inconclusive: 15.8 µM [activator, single point]",–
CC(=NCc1cccc(Cl)c1)c1nc(-c2ccco2)oc1O,"inconclusive: 20 µM [activator, single point]",–
COc1cccc(-c2nc3n(n2)CCc2ccccc2-3)c1,"inconclusive: 1 µM [activator, full curve, poor fit]",–
COC(=O)N1C(=O)[C@](c2ccc(Cl)cc2)(C(C)C)N1C(=O)OC,"inconclusive: 22.4 µM [activator, single point]",–
O=C(/C=C/c1ccc([N+](=O)[O-])s1)N1CCCCC1,"inconclusive: 3.55 µM [activator, single point]",–
Clc1ccc(/C=C/c2ncc[nH]2)c(Cl)c1,"inconclusive: 20 µM [activator, single point]",–
COc1ccc(CCC(=O)Nc2c(-c3ccc(N(C)C)cc3)[nH][nH]c2=O)cc1,"inconclusive: 15.8 µM [activator, single point]",–
CCn1nc(C)c(Br)c1-c1nc(-c2cccc(C)c2)no1,"inconclusive: 6.31 µM [activator, partial curve, poor fit]",–
CCC(C(=O)Nc1ccon1)c1ccccc1 (stereo unspecified),–,inactive: -1.74%
COc1cc(OC)cc(C(=O)Nc2ccccc2-c2nnn(CC(=O)Nc3cc(C)on3)n2)c1,–,inactive: -0.304%
CCOCCn1ccc2c(OCC(=O)Nc3ccc(OC)c(OC)c3)cccc2c1=O,–,inactive: -0.218%
O=[N+]([O-])c1ccccc1S(=O)(=O)Oc1ccccc1/C=N/n1cnnc1,"inconclusive: 15.8 µM [activator, single point]",–
O=C(CSC1=NCCS1)Nc1nc2ccccc2s1,"inconclusive: 12.6 µM [activator, single point]",–
O=C(N/N=C/C(Br)=C\c1ccccc1)c1ccc2nc[nH]c2c1,active: 22.4 µM,–
COc1ccc(NC(=O)c2sc3nc4n(c(=O)c3c2C)CCC4)c(OC)c1,–,inactive: -1.06%
CCCN1CCc2c(sc(NC(=O)CCS(=O)(=O)c3ccccc3)c2C(=O)OC)C1,"inconclusive: 25.1 µM [activator, single point]",–
COc1ccc(C(=O)COC(=O)c2ccc([N+](=O)[O-])s2)cc1OC,"inconclusive: 20 µM [activator, single point]",–

SMILES,Potency,activation
CCOC(=O)c1cccc(NC(=O)c2ccc(N(C)C)cc2)c1,–,inactive: -1.09%
COc1cc2c(C(=O)N3CCN(c4ccc(F)cc4)CC3)cn(CC(C)C)c(=O)c2cc1OC,–,inactive: 4.3%
O=C(CSc1ccccn1)N/N=C/c1ccccc1[N+](=O)[O-],"inconclusive: 5.62 µM [activator, partial curve]",–
CCOc1ccccc1NC(=O)C1CCCN(S(=O)(=O)c2cccs2)C1 (stereo unspecified),–,inactive: 0.489%
C/C(=N\Nc1ccc2nncn2n1)c1ccco1,"inconclusive: 12.6 µM [activator, partial curve]",–
O=[N+]([O-])c1ccc(Sc2cccc[n+]2[O-])c2nonc12,–,inactive: -2.56%
N/C(=N\OC(=O)c1ccccc1Cl)c1ccncc1,active: 8.91 µM,–
O=C(CSc1nnc(-c2csc3c2CCCC3)o1)Nc1ccccc1,–,inactive: -0.413%
Clc1ccccc1C=NNc1ccccn1,"inconclusive: 5.62 µM [activator, full curve, poor fit]",–
COC(=O)c1sccc1NC(=O)c1cccc(F)c1,active: 10 µM,–
COC(=O)c1sccc1NC(=O)/C=C/C(=O)O,"inconclusive: 17.8 µM [activator, single point]",–
O=C(/C=C/c1ccc(Cl)cc1Cl)OCC(=O)N1CCCC1,"inconclusive: 20 µM [activator, partial curve, poor fit]",–
Cc1onc(NC(=O)c2ccc([N+](=O)[O-])o2)c1Br,"inconclusive: 3.16 µM [activator, partial curve, poor fit]",–
COc1cc(/C=N/N(c2ccccc2)c2ccccc2)ccc1O,–,inactive: -0.469%
C=Cc1ncc(OC)c2c1[nH]c1ccccc12,"inconclusive: 3.16 µM [activator, single point]",–
COc1ccc(/C=N/Nc2nncc3ccccc23)cc1,"inconclusive: 11.2 µM [activator, partial curve, poor fit]",–
C/C(=N\NC(=O)c1cccc2ccccc12)c1ccccn1,"inconclusive: 15.8 µM [activator, single point]",–
COC(=O)CCS(=O)(=O)c1nc(-c2ccccc2)cc(C(F)(F)F)n1,"inconclusive: 5.01 µM [activator, single point]",–
CC(=O)c1ccc(OCC(O)CN2CCN(S(=O)(=O)c3c(C)c(C)cc(C)c3C)CC2)cc1 (stereo unspecified),–,inactive: 3.1%
Cc1nc(/N=C(\N)NC(=O)c2ccccc2)nc2ccccc12,"inconclusive: 1.58 µM [activator, full curve, poor fit]",–
CCS(=O)(=O)c1nc(S(=O)(=O)c2ccc(C)cc2)c(N2CC(C)OC(C)C2)s1 (stereo unspecified),"inconclusive: 2.82 µM [activator, partial curve, poor fit]",–
COc1ccc(C(=S)N2CCOCC2)cc1OS(=O)(=O)c1ccccc1[N+](=O)[O-],"inconclusive: 12.6 µM [activator, single point]",–
COc1cc(/C=N/Nc2nc(-c3ccc(S(=O)(=O)N(C)C)cc3)cs2)ccc1O,"inconclusive: 28.2 µM [activator, single point]",–
CCOc1nc(-c2ccccc2)ccc1-c1noc(-c2cccs2)n1,"inconclusive: 8.91 µM [activator, partial curve]",–

SMILES,Potency,activation
CCN1C(=O)CCN(C2CCCC2)c2nc(Nc3ccc(C(=O)NC4CCN(C)CC4)cc3OC)ncc21,"inconclusive: 3.16 µM [activator, single point]",–
CC(=O)CSc1cc(-c2ccccc2)nc2ncnn12,"inconclusive: 28.2 µM [activator, single point]",–
O=C(/C=C/c1ccco1)N1CCc2ccccc21,"inconclusive: 0.562 µM [activator, partial curve, poor fit]",–
Cc1ccc(NC(=O)c2cc3ccccc3o2)cc1Cl,–,inactive: 12.5%
CCOC(=O)c1c(NC(=O)/C=C/c2ccc(C)o2)sc(C)c1C,"inconclusive: 10 µM [activator, partial curve, poor fit]",–
C/C(=N\N=C(c1ccccc1)c1ccccc1)c1ccco1,"inconclusive: 14.1 µM [activator, single point]",–
COc1ccc(S(=O)(=O)c2c(N)n(Cc3ccco3)c3nc4ccccc4nc23)cc1,–,inactive: 17.4%
Cc1ccc(-c2cn3cc([N+](=O)[O-])ccc3n2)cc1,"inconclusive: 2.51 µM [activator, full curve, poor fit]",–
CCOC(=O)Cc1c(C)nc2c(-c3ccccc3)c(C)[nH]n2c1=O,–,inactive: 0.139%
Cc1occc1C(=O)O/N=C(\N)c1ccccc1,"inconclusive: 11.2 µM [activator, partial curve, poor fit]",–
O=C(NC1CCCCC1)C(c1cccs1)N(C(=O)c1ccco1)c1ccc2c(c1)OCCO2 (stereo unspecified),–,inactive: 2.52%
CC(C)Cn1cc(NC(=O)N2CCN(c3ccc(F)cc3)CC2)c2ccccc2c1=O,–,inactive: -0.43%
COc1ccc(C2Nc3ccccc3NC3=C2C(=O)CC(C)(C)C3)cc1 (stereo unspecified),"inconclusive: 25.1 µM [activator, single point]",–
O=c1cc(-c2ccco2)oc2c1ccc1ccccc12,"inconclusive: 20 µM [activator, partial curve, poor fit]",–
O=C(COC(=O)/C=C/C(=O)N1CCN(c2ccccc2)CC1)NC(c1ccccc1)c1ccccc1,"inconclusive: 28.2 µM [activator, single point]",–
COc1ccccc1NS(=O)(=O)c1ccc(C(=O)Nc2ncccc2O)cc1,"inconclusive: 15.8 µM [activator, single point]",–
CCCCN(C)CC(O)Cn1cc(/C=C/C(=O)c2ccc(Br)cc2)c2ccccc21 (stereo unspecified),"inconclusive: 12.6 µM [activator, single point]",–
Cc1ccc(Sc2ccc(NC(=O)CCl)cc2)c(C)c1,"inconclusive: 25.1 µM [activator, single point]",–
Cc1ccccc1N(CC(=O)N/N=C/c1ccc(F)cc1)C(=O)c1ccccc1,–,inactive: 0.113%
CC(C)(C)c1nnc(N/N=C/c2ccccc2)n(N)c1=O,–,inactive: 0.11%
CN(C)c1ccc(/C=N/NC(=O)COc2ccccc2)cc1,–,inactive: 2.28%
Cc1cccc(C(=O)Nc2cc3c(cc2C)n(C)c(=O)n3C)c1,–,inactive: 12%
COc1cc(C2C3C(=O)N(c4ccccc4)C(=O)C3ON2c2ccccc2)cc(OC)c1OC (stereo unspecified),–,inactive: -0.689%
